This is an account of results in publication PMC13083723 (Patterns, 2026).

The campaign covered roughly 5,400 compounds. About 190 (3.5%) showed an effect of 50% or more. The list shows a part of the results.

This assay deals with Vero-E6. The experiment in a line: primary screen, phospholipidosis by LipidTOX staining; higher = more effect of the substance. As to conditions: 10 µM. The gist of the method:
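Drug-induced phospholipidosis detected with HCS LipidTOX Red reagent in Vero-E6 cells. Compounds tested at 10 μM, with amiodarone (10 μM) as positive control and DMSO (0.1 v/v %) as vehicle.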
For `CCCCCCCCCCCCCCC[C@@H](O)[C@@H](N)CO`, the result_ITMP is given as -0.49%.

As to `COc1cc(C)c(/C=C/C(C)=C/C=C/C(C)=C/C(=O)O)c(C)c1C`, the result_ITMP worked out at 0.98%.

As for `CCCCCCCCCCCCCCCCCC(=O)OCC(O)CO` (centres unmarked), the result_ITMP is given as -2.54%.

In the case of `CC(C)(F)C[C@H](N[C@@H](c1ccc(-c2ccc(S(C)(=O)=O)cc2)cc1)C(F)(F)F)C(=O)NC1(C#N)CC1`, the result_ITMP is 1.59%.

Take `COc1cc(-n2c(S)nc3ccccc3c2=O)c(Cl)cc1Cl`: the result_ITMP was -8.31%.

In the case of `C[C@@]12N[C@@H](Cc3ccccc31)c1ccccc12`, the result_ITMP is on record as 8.79%.

On to `CC(CC(C(N)=O)(c1ccccc1)c1ccccc1)N(C)C` (centres unmarked), for which the result_ITMP is on record as -2.3%.

As for `NS(=O)(=O)c1cc2c(cc1Cl)NCNS2(=O)=O`, the result_ITMP was -2.21%.

`O=C1C(=O)N(Cc2ccc(Cl)c(Cl)c2)c2ccccc21`: the result_ITMP is -3.12%.

Take `O=C(NC1CCOCC1)c1ccc(-c2cc(-c3c[nH]nc3-c3ccccn3)ccn2)cc1`: the result_ITMP is on record as -6.7%.

Regarding `C[N+]1(C)CCC(=C(c2ccccc2)c2ccccc2)CC1`, the result_ITMP is recorded as -10.1%.

With `COc1ccc(-c2noc(CC(=O)O)c2-c2ccc(OC)cc2)cc1`, the result_ITMP is on record as -3.22%.

`CN(C)CCc1c[nH]c2ccc(C[C@H]3COC(=O)N3)cc12`: the result_ITMP was 5.78%.

For `O=C1c2cccc(O)c2C(=O)c2c(O)cc(CO)cc21`, the result_ITMP is -4.58%.

Consider `CN(C)CCC=C1c2ccccc2C=Cc2ccccc21`, for which the result_ITMP is 71.1%.

For `CC(=O)N[C@@H](CSSC[C@H](NC(C)=O)C(=O)O)C(=O)O`, the result_ITMP was -11.7%.

With `CSc1ccc(C(=O)c2nc(O)[nH]c2C)cc1`, the result_ITMP is -1.45%.

Take `NCCCCN(Cc1nc2ccccc2[nH]1)[C@H]1CCCc2cccnc21`: the result_ITMP was 1.31%.

Consider `C/C(=N\NC(=S)N1CCC1)c1ccccn1`, for which the result_ITMP was -1.79%.

As to `Nc1ccc(C(=O)Oc2ccccc2)c(O)c1`, the result_ITMP is given as -2.08%.

With `O=C(Nc1ccc2[nH]ccc2c1)c1ccccc1`, the result_ITMP is given as -1.72%.

In the case of `Oc1ccc(O)cc1`, the result_ITMP is -3.83%.

With `O=C(/C=C/c1ccc2ccc(C(F)(F)F)cc2n1)c1ccncc1`, the result_ITMP was -2.62%.

For `CN1CCN(c2cccc(Nc3nc4c(-c5ccc(S(C)(=O)=O)cc5)cccn4n3)c2)CC1`, the result_ITMP is recorded as 28.1%.

As for `COc1cc2nc(N3CCN(C(=O)C4CCCO4)CC3)nc(N)c2cc1OC` (centres unmarked), the result_ITMP is on record as -1.86%.

Consider `Nc1ncnc2c1c(-c1ccc(Oc3ccccc3)cc1)nn2C1CCCC1`, for which the result_ITMP is listed as -1.17%.

In the case of `CC1CCC(NC(=O)N(CCCl)N=O)CC1` (centres unmarked), the result_ITMP turned out to be 15.3%.

With `CN[C@@H](C)C(=O)N[C@H](C(=O)N1CCC[C@H]1C(=O)Nc1snnc1-c1ccccc1)C1CCCCC1`, the result_ITMP is -3.7%.

Regarding `O=C(O)C(Cc1ccccc1)NCc1ccc(Cl)cc1` (centres unmarked), the result_ITMP is recorded as -4.97%.

Consider `O=C(O)c1ccccc1NCCc1ccccc1`, for which the result_ITMP was -4.6%.

Turning to `CC(C)(O)CC[C@@H](O)[C@](C)(O)[C@H]1CC[C@@]2(O)C3=CC(=O)[C@@H]4C[C@@H](O)[C@@H](O)C[C@]4(C)[C@H]3CC[C@]12C`, the result_ITMP is given as -4.97%.

As to `CC(=O)[C@H]1CC[C@H]2[C@@H]3CCC4=CC(=O)CC[C@]4(C)[C@H]3[C@H](O)C[C@]12C`, the result_ITMP amounted to 1.58%.

On to `COC(=O)C(c1ccccc1)C1CCCCN1` (centres unmarked), for which the result_ITMP amounted to 10.3%.

Consider `CNC(=O)c1nn(C)c2c1C(C)(C)Cc1cnc(Nc3ccc(N4CCN(C)CC4)cc3)nc1-2`, for which the result_ITMP amounted to 54.6%.

Take `CC(=O)NC(C(=O)O)C(C)(C)SN=O` (centres unmarked): the result_ITMP is -3.03%.

For the compound `O=S(=O)([O-])Oc1ccc(C(c2ccc(OS(=O)(=O)[O-])cc2)c2ccccn2)cc1`, the result_ITMP is given as -7.14%.

Consider `Nc1ccc(S(=O)(=O)Nc2ccc(Cl)nn2)cc1`, for which the result_ITMP is reported as -2.24%.

As for `c1ccc(C2CN3CCSC3=N2)cc1` (centres unmarked) [R4A_0001404_001 / SPE_A46393198], the result_ITMP is 3.95%.

Regarding `Cc1ccc(/C=N/NC(=O)c2ccccc2Oc2ccccc2)o1`, the result_ITMP is listed as -3.82%.

Consider `C=C[C@H]1C[N@]2CC[C@H]1C[C@@H]2[C@@H](O)c1ccnc2ccc(OC)cc12`, for which the result_ITMP stood at 11.5%.

Take `O=S(=O)(Cc1ccccc1)Nc1ccc(-c2ccc3c(cnn3-c3ccc(F)cc3)c2)c(C(F)(F)F)c1`: the result_ITMP is -1.55%.

Take `O=C1/C(=C\c2ccccc2)C[C@@]2(O)C3Cc4ccc(O)c5c4[C@@]2(CCN3CC2CC2)[C@H]1O5`: the result_ITMP is recorded as -2.69%.

As to `CC(C)NCCN(C(C)C)S(=O)(=O)c1ccc(Cl)cc1Cl`, the result_ITMP is 28.4%.

Regarding `FC(F)(F)c1ccc(/C=C/c2nc(COc3ccc(CCCCn4ccnn4)cc3)co2)cc1`, the result_ITMP was 0.58%.

For `Nc1ccn(C[C@@H](CO)OCP(=O)(O)O)c(=O)n1`, the result_ITMP is reported as -10.2%.

In the case of `CN1CCCC(CN2c3ccccc3Sc3ccccc32)C1` (centres unmarked), the result_ITMP came out at 42.2%.

Regarding `CCC(C)(C)C(=O)C(=O)N1CCC[C@H]1C(=O)OCCCc1cccnc1`, the result_ITMP is given as 0.06%.

Turning to `O=C1c2c(O)cc(O)cc2O[C@H](c2ccc(O)c(O)c2)[C@H]1O`, the result_ITMP is -4.56%.

Take `CCCC(=O)C1(c2ccccc2)CCN(C(=O)[C@@H](Cc2ccc(OC)cc2)NC(=O)[C@@H](N)Cc2cncn2C)CC1`: the result_ITMP is given as -0.56%.

Take `COc1ccc(Nc2nccc(NCCO)n2)cc1`: the result_ITMP is reported as -0.65%.

For `CC(=O)OCC1=C(C(=O)O)N2C(=O)[C@@H](N)[C@H]2SC1`, the result_ITMP turned out to be 6.22%.

For the compound `CN(C)CCCOc1nn(Cc2ccccc2)c2ccccc12`, the result_ITMP is given as 51.2%.

With `CCc1nc(C(N)=O)c(Nc2ccc(N3CCC(N4CCN(C)CC4)CC3)c(OC)c2)nc1NC1CCOCC1`, the result_ITMP came to 1.5%.

As to `Cn1cc(C(=O)OCC2CCN(CCNS(C)(=O)=O)CC2)c2ccccc21`, the result_ITMP is 0.77%.

Regarding `O=C(O)COc1cccc(-c2ocnc2-c2nc(-c3ccccc3)c(-c3ccccc3)o2)c1`, the result_ITMP was -2.06%.

For the compound `S=C=Nc1ccc(N=C=S)cc1`, the result_ITMP is given as -2.11%.

Regarding `O=C(O)COc1nn(Cc2ccccc2)c2ccccc12`, the result_ITMP is on record as 0%.

On to `C[C@@H](CN1CCC(n2c(=O)[nH]c3cc(Cl)ccc32)CC1)NC(=O)c1ccc2ccccc2c1`, for which the result_ITMP worked out at 41.4%.

On to `CNS(=O)(=O)Nc1nccc(Cc2c(C)c3ccc(Oc4ncccn4)cc3oc2=O)c1F`, for which the result_ITMP is 0.77%.

As to `CCCCCn1cc(C(=O)NC23CC4CC(CC(C4)C2)C3)c(=O)c2cc(-c3ccccc3)ccc21`, the result_ITMP is recorded as -2.74%.

Turning to `CCCCC(=O)O[C@]1(C(=O)CO)[C@@H](C)C[C@H]2[C@@H]3CCC4=CC(=O)C=C[C@]4(C)[C@@]3(F)[C@@H](O)C[C@@]21C`, the result_ITMP is given as -2.17%.

Regarding `CO[C@]12C[C@@H](COC(=O)c3cncc(Br)c3)CN(C)[C@@H]1Cc1cn(C)c3cccc2c13`, the result_ITMP is -1.13%.

Regarding `COc1cc(C(=O)N2CCOCC2)cc(OC)c1OC`, the result_ITMP was -5.33%.

As for `CC(=O)OCC(=O)[C@@]1(O)CC[C@H]2[C@@H]3CCC4=CC(=O)C=C[C@]4(C)[C@@]3(F)[C@@H](O)C[C@@]21C`, the result_ITMP is -9.79%.

On to `C=C1/C(=C/C=C2\CCC[C@]3(C)[C@@H]([C@H](C)/C=C/[C@@H](C)C(C)C)CC[C@@H]23)C[C@@H](O)C[C@@H]1O`, for which the result_ITMP is recorded as -2.6%.

With `Cc1ccc(S(=O)(=O)NC2c3ccccc3Oc3ccccc32)cc1`, the result_ITMP is -4.31%.

For `CC(C)(C)c1cc(C(=O)/C=C/c2ccc(C(=O)O)cc2)cc(C(C)(C)C)c1`, the result_ITMP is on record as -7.64%.

In the case of `Cc1ccc(-c2n[nH]c3c2C(c2cccc(O)c2)N(c2ccc(C(=O)O)cc2)C3=O)cc1` (centres unmarked), the result_ITMP stood at 0.62%.

As to `CC(C)(C)c1ccc(CN(Cc2cccc(OCC(=O)O)c2)S(=O)(=O)c2cccnc2)cc1`, the result_ITMP is reported as -1.66%.

With `CC(=O)Nc1ccc(S(=O)(=O)Nc2ccc([N+](=O)[O-])cc2)cc1`, the result_ITMP is given as 4.56%.

As for `CCC(=O)[C@@]1(C)[C@H](C)C[C@H]2[C@@H]3CCC4=CC(=O)C=C[C@]4(C)[C@H]3[C@@H](O)C[C@@]21C`, the result_ITMP was -10.8%.

As to `CCc1cc(C(N)=S)ccn1`, the result_ITMP was -1.5%.

Consider `NC(Cn1ccc(=O)n(Cc2ccccc2C(=O)O)c1=O)C(=O)O` (centres unmarked), for which the result_ITMP is recorded as -0.37%.

Consider `OCC(Br)(Br)Br`, for which the result_ITMP is on record as -4.8%.

As for `COc1cc(OC)c(/C=C2/C(=O)Nc3ccccc32)c(OC)c1`, the result_ITMP stood at 2.33%.

Take `OCc1ccc(O[C@@H]2O[C@H](CO)[C@@H](O)[C@H](O)[C@H]2O)cc1`: the result_ITMP is -6.61%.

For the compound `O=C(NC(NC(=S)Nc1ccc(F)c([N+](=O)[O-])c1)C(Cl)(Cl)Cl)C(c1ccccc1)c1ccccc1` (centres unmarked), the result_ITMP amounted to 38%.

As for `CN(C)c1cccc(Oc2cnc(Nc3cccc(O)c3)nc2)c1`, the result_ITMP was -4.33%.

As to `CC[C@H](C)[C@@H]([C@@H](CC(=O)N1CCC[C@H]1[C@H](OC)[C@@H](C)C(=O)N[C@@H](Cc1ccccc1)c1nccs1)OC)N(C)C(=O)[C@@H](NC(=O)[C@H](C(C)C)N(C)C)C(C)C`, the result_ITMP is recorded as 19%.

For the compound `Oc1cc(CNC(=S)/C=C/c2cc(O)c(O)c(Br)c2)cc(O)c1O`, the result_ITMP amounted to 1.59%.

Turning to `Cn1cc(C2=C(c3ccc(Cl)cc3Cl)C(=O)NC2=O)c2ccccc21`, the result_ITMP is listed as -1.85%.

For `CN1CCN(C(c2ccccc2)c2ccc(Cl)cc2)CC1` (centres unmarked), the result_ITMP worked out at 44.4%.

Take `Cc1cccc(Nc2cc(Cl)nc(SCC(=O)O)n2)c1C`: the result_ITMP is recorded as -1.65%.

Consider `CCOc1cc2ncc(C#N)c(Nc3ccc(OCc4ccccn4)c(Cl)c3)c2cc1NC(=O)/C=C/CN(C)C`, for which the result_ITMP was 0.53%.

As to `C[C@H](Cc1ccc2c(c1)OC(C(=O)[O-])(C(=O)[O-])O2)NC[C@H](O)c1cccc(Cl)c1`, the result_ITMP is given as -2.22%.

As to `O=C(N/N=C/c1ccc([N+](=O)[O-])o1)c1ccc(O)cc1`, the result_ITMP was -0.62%.

For `CN(C)C(=S)SSC(=S)N(C)C`, the result_ITMP was -1.49%.

For `CN(Cc1ccccc1)C(=O)[C@H](Cc1ccc2ccccc2c1)NC(=O)[C@@H]1C[C@@H](O)CN1C(=O)c1cn(C)c2ccccc12`, the result_ITMP was -2.14%.

For `CC(C)(C)NCC(O)CSc1nc(-c2ccc(C(N)=O)s2)cs1` (centres unmarked), the result_ITMP is on record as -0.68%.
